# Experimental data: the supplement of paper PMC7826260
# The list shows a part of the results. The data describe in vitro nicking of single-stranded DNA by Rep domains at 3 µM enzyme and 37 °C for 1 h; the strands have 90 letters, of which the middle is given. A value is the log2 ratio of uncut reads to the pool without enzyme; strong cutting gives strongly negative numbers. There is no active / inactive call. Because reads are shares of a total, they shift together; where an enzyme cuts many sequences, the uncut ones exceed 0.
# Tests used:
# Assay in all cases: uncleaved DNA left, log2 of reads against the no-enzyme library (log2 ratio); higher = less cleavage (more negative = more Rep cleavage of the k-mer); sequences stand for … in CTCGTCCG…ACCGGAGA
# [1] = tested on: T1, Rep nickase domain of Muscovy duck circovirus
# T1 sequence (residues 1-111 of Rep, tag left off): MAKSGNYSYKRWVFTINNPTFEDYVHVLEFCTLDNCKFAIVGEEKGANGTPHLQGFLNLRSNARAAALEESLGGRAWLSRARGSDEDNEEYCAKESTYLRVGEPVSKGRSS
# Procedure: (§1)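 A pool of 90-nt single-stranded DNAs with seven random bases just before the constant AC of the nick site (name = the seven bases) was cut by 3 µM recombinant His6-SUMO-tagged Rep nickase domain (300 nM DNA, 50 mM HEPES pH 8.0, 50 mM NaCl, 1 mM MnCl2, 1 h, 37 °C, three replicates). Uncut DNA was amplified and sequenced.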
# [2] = tested on: T2, Rep nickase domain of banana bunchy top virus
# T2 sequence (residues 1-94 of Rep, tag left off): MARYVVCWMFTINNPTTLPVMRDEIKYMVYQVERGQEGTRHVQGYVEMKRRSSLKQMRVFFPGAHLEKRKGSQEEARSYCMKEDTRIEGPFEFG
# Procedure: as §1
# [3] = tested on: T3, Rep nickase domain of cabbage leaf curl virus
# T3 sequence (residues 1-116 of Rep, tag left off): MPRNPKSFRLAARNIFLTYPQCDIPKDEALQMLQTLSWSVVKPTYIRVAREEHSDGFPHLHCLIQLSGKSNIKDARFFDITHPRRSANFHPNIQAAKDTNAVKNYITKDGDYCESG
# Procedure: as §1
# [4] = tested on: T4, Rep nickase domain of chickpea chlorotic dwarf virus
# T4 sequence (residues 1-124 of Rep, tag left off): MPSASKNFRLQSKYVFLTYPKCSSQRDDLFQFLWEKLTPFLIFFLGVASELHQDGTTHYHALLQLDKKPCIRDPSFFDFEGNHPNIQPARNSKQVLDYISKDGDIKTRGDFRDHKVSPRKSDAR
# Procedure: as §1
# [5] = tested on: T5, Rep nickase domain of faba bean necrotic yellows virus
# T5 sequence (residues 1-98 of Rep, tag left off): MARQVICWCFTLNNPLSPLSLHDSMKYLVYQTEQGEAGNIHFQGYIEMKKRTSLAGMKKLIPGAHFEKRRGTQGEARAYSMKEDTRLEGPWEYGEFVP
# Procedure: as §1
# [6] = tested on: T6, Rep nickase domain of maize striate mosaic virus
# T6 sequence (residues 1-117 of Rep, tag left off): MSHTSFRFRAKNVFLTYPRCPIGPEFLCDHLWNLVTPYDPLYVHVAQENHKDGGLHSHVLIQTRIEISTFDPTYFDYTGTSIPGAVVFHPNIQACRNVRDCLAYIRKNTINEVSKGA
# Procedure: as §1
# [7] = tested on: T7, Rep nickase domain of porcine circovirus 2
# T7 sequence (residues 2-116 of Rep, tag left off): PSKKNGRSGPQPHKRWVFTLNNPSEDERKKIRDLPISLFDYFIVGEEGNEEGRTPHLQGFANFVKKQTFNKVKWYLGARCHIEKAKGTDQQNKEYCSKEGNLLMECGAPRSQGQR
# Procedure: as §1
# [8] = tested on: T8, Rep nickase domain of tomato yellow leaf curl virus
# T8 sequence (residues 1-136 of Rep, tag left off): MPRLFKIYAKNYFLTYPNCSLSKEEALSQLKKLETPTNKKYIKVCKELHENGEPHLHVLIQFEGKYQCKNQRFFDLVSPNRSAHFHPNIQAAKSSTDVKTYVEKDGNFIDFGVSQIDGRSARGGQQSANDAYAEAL
# Procedure: as §1
# [9] = tested on: T9, Rep nickase domain of wheat dwarf virus
# T9 sequence (residues 1-137 of Rep, tag left off): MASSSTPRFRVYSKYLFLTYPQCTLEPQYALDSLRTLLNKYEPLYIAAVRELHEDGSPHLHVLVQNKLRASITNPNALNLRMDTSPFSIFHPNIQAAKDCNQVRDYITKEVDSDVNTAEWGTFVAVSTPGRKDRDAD
# Procedure: as §1
Sequence,uncleaved DNA left (log2) [1],uncleaved DNA left (log2) [2],uncleaved DNA left (log2) [3],uncleaved DNA left (log2) [4],uncleaved DNA left (log2) [5],uncleaved DNA left (log2) [6],uncleaved DNA left (log2) [7],uncleaved DNA left (log2) [8],uncleaved DNA left (log2) [9]
ACGTGTT,-2.9,-0.613,-0.903,-1.94,-1.08,-0.105,-3.37,-0.0273,-0.622
CTGAACA,0.0418,-0.0785,-0.0287,-1.17,0.144,-0.0965,-0.0295,0.146,0.0975
TTATACT,-4.11,-0.576,-3.61,-3.42,-0.193,-2.49,-3.98,-0.00835,-3.51
AGTGGCA,0.0886,0.071,0.14,0.555,0.0723,0.567,-0.0324,-0.0428,-0.0729
ATCCAGG,-0.00767,-0.0896,0.277,1.01,0.0133,0.413,0.0895,0.0278,-0.041
GTACGGG,0.193,0.122,0.338,0.711,-0.0454,0.642,0.145,-0.0489,0.0906
GGCTTAC,0.0573,0.0554,0.415,0.548,-0.0816,1.66,0.0419,-0.0697,0.133
AGACCCC,0.0862,0.113,0.861,1.81,-0.0201,2.32,0.15,0.0314,0.193
CTCGTCT,0.0196,-0.0306,-0.0734,-1.75,0.0795,-0.552,-0.326,-0.0567,-0.0577
AGATTAG,-0.00944,0.0826,-0.637,-0.322,0.162,-1.15,0.0866,0.138,-0.0275
ATGCAAT,0.177,0.0193,0.109,0.0528,0.133,-0.224,0.0626,0.0228,0.137
CCTGCAC,-0.135,-0.0929,-0.558,-0.73,-0.134,-0.923,0.076,-0.063,-0.235
CTGAACC,0.124,-0.0472,0.0946,0.456,0.0424,0.41,0.00304,0.0408,0.103
TGCAGGT,0.0143,0.00926,0.187,0.953,-0.0455,1.37,0.117,-0.138,0.00814
GGAGGGC,0.158,0.23,0.845,1.58,0.0566,1.81,0.304,-0.0211,0.187
TAGAGGT,0.111,0.0225,0.275,0.516,0.103,1.39,-2.35,0.012,-0.0214
GATTGTG,-0.0541,-0.0751,-0.558,0.727,0.133,-0.256,0.166,0.17,-0.0414
AATTGGC,-0.0733,-0.106,-0.594,-0.808,-0.00128,-1.32,0.0799,-0.041,-0.122
CATCCGT,0.0285,-0.0474,-0.454,-1.2,0.0138,-1.12,0.0646,-0.0643,-0.185
GTTAATA,-0.00353,0.0462,0.293,0.905,0.0714,1.74,-0.017,0.117,0.0777

Sequence,uncleaved DNA left (log2) [1],uncleaved DNA left (log2) [2],uncleaved DNA left (log2) [3],uncleaved DNA left (log2) [4],uncleaved DNA left (log2) [5],uncleaved DNA left (log2) [6],uncleaved DNA left (log2) [7],uncleaved DNA left (log2) [8],uncleaved DNA left (log2) [9]
TACAGTT,-0.0468,-0.328,-2.9,-2.52,0.016,-0.84,-3.15,0.0264,-0.533
GTGGCGC,-0.00775,-0.0386,0.0204,0.0737,-0.0291,0.0539,-0.000242,-0.0515,-0.144
AAGGCTG,0.0433,0.0165,0.402,1.65,-0.0689,1.77,0.247,-0.17,0.203
AAGCTTA,-0.0586,-0.0539,-0.0896,-1.36,0.000609,0.571,-0.638,-0.0788,-0.125
GTCACTG,-0.0719,0.104,0.193,0.742,0.0652,1.64,0.0741,0.0142,0.0652
CTAGTGA,0.0199,0.0425,-0.306,-0.31,0.192,-0.837,0.195,-0.024,-0.0933
AATATTA,-0.0195,-0.105,-0.862,-2.51,-0.099,-1.03,-0.34,-0.198,-0.132
CTAAGCG,0.0138,0.0591,-0.735,0.434,0.0169,-0.684,0.165,0.0576,-0.105
AGGCGCG,0.0636,0.0592,-0.711,0.0357,0.08,-0.547,0.3,0.13,0.0403
GCTGAGC,-0.0381,0.0822,0.19,0.41,0.0183,0.506,0.216,-0.0166,0.18
AACATGA,-0.0128,-0.0627,-0.298,-0.406,-0.0797,-0.882,0.0336,-0.0266,-0.0824
AAGAGAA,0.154,0.12,0.206,1.1,0.121,1.14,0.0849,-0.0217,0.117
GTTACGT,0.0461,0.132,0.342,0.713,0.0566,1.11,0.0863,0.09,0.169
GCGAGAC,-0.00881,0.0188,0.719,1.58,0.0258,1.8,0.124,0.108,0.123
GACTGTT,-2.47,-2.07,-0.281,-0.77,-0.277,1.09,-2.93,-0.0241,-0.0753
TATGCAG,0.0255,-0.0971,-0.682,-0.373,-0.0183,-1.24,0.151,0.131,-0.125
CCGTACT,-2.81,-0.958,-1.91,-2.44,-2.49,-0.521,-3.06,-0.276,-2.48
TTTAGGT,0.0556,-0.0339,0.542,1.2,-0.0413,1.8,0.0364,-0.155,0.00618
AAGTAAG,-0.00294,-0.0561,-0.799,-0.652,0.0576,-1.04,0.0404,0.0475,-0.0701
TTATTCG,0.0471,-0.13,-0.962,0.0701,-0.00331,-1.12,0.0902,-0.0556,-0.184
